Assay results from the RNAGym collection of RNA variant scans (doi:10.1093/nar/gkz1192).
The source gives no read counts; variants with many changes may rest on few reads.

B1: CPEB3 Ribozyme (parent)
chain: UAACAGGGGGCCACAGCAGAAGCGUUCACGUCGCAGCCCCUGUCAGAUUCUGGUGAAUCUGCGAAUUCUGCUGUAUAUCUC

Variants of: B1
Experiment: self-cleavage, relative activity (ratio to wild type); higher = more cleavage; in vitro, sequencing
Summary of the method: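 Libraries of CPEB3 self-cleaving ribozyme mutants came from rounds of error-prone PCR and carried barcodes, which DNA sequencing matched to variants. In vitro transcription used T7 RNA polymerase at 37°C for 5 hours, with a further 15 min in DNase I before EDTA stopped the reaction; the ribozymes cleaved during both steps. The RNA was reverse transcribed with template switching and sequenced on Illumina. Relative activity is the cleaved/total read fraction of a variant divided by that of the unmutated ribozyme, averaged over three batches with at least 5 reads.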

Variant	self-cleavage
A20G A21G C39U C50A	0.52
A20G A21G G24A U41C A65G	0.07
A20G A21G G70A	0.4
A20G A21G U25A U48C A64G U66C U69C	0.31
A20G A21G U25C U51C	0.36
A20G A21G U26A	0.47
A20G A21G U26A A45G U51A	0.23
A20G A21G U26C	0.41
A20G A21G U26C A45U U80A	0.06
A20G A21G U26C U31A A57G U67C	0.22
A20G A21G U26C U60G U69C	0.05
A20G A21G U26C U67C	0.13
A20G A21G U26G U51A	0.06
A20G A21G U31C	0.26
A20G A21G U43C A47U U60C	0.22
A20G A21G U48C	0.28
A20G A21G U58A C71G	0.34
A20G A21G U69C	0.26
A20G A21U C37U U54G U60A U80C	0.18
A20G A21U U43C	0.08
A20G A21U U48C U51A	0.27
A20G A21U U51G U74C	0.22
A20G A21U U66A	0.7
A20G A28C U49A A56G C79U	0.16

Variant	self-cleavage
A20G A28G A35G U72C A75G	1.04
A20G A28G A35U G42U U43A U58C	0.05
A20G A28G A35U U69C	0.08
A20G A28G A64U U66C A77G	0.23
A20G A28G C29U C37U U49C	0.13
A20G A28G C29U C37U U49C U51A	0.16
A20G A28G G33A A35G G55C	0.04
A20G A28G G53A U72A U78C	0.46
A20G A28G U43A A45G U66C	0.3
A20G A28G U43C	0.42
A20G A28G U43C U58C	0.23
A20G A28G U49A U80C	0.15
A20G A28G U49C G63A	0.27
A20G A28G U51A A64U U67C	0.11
A20G A28G U54C A56G U58C U76C U78C	0.28
A20G A28G U58C U66A A77G	0.09
A20G A28G U66C U72A	0.09
A20G A28G U76C	0.53
A20G A28G U78C	0.25
A20G A28U A35U U41A U76C	0.1
A20G A28U A35U U67C	0.25
A20G A28U A47G	0.51
A20G A28U A47G U66C U72C	0.18
A20G A28U G30A U51C A77U	0.16

Variant	self-cleavage
A20G A28U G42A	0.22
A20G A28U U31C A35G U72A	0.33
A20G A28U U41C U66C U72C	0.25
A20G A28U U43A A47U U60C A64U	0.12
A20G A28U U43C U54C U78C	0.06
A20G A28U U60C U80C	0.23
A20G A35G A45C	0.61
A20G A35G A45G U60A	0.71
A20G A35G A56G U66C U78C U80C	0.89
A20G A35G A64G U72C	1.22
A20G A35G A65G	0.73
A20G A35G A75U U80A	1.31
A20G A35G C39A U43C U49C U80C	0.29
A20G A35G C62U	0.29
A20G A35G G36U U60G A64G	0.09
A20G A35G G46A	0.73
A20G A35G G52A	1.23
A20G A35G U41A U49A U67C	0.12
A20G A35G U41A U51C U58A A77G	0.2
A20G A35G U43C C59A	0.41
A20G A35G U43C U49C U80C	0.43
A20G A35G U48C	0.85
A20G A35G U60A U69C	0.48
A20G A35G U60C C62A U69C	0.26

Variant	self-cleavage
A20G A35G U69C	1.25
A20G A35G U72G	1.15
A20G A35U A45U U51C	0.19
A20G A35U A57U U72C	0.14
A20G A35U C38U U67C	0.19
A20G A35U U41C	0.42
A20G A35U U49C	0.18
A20G A35U U51A U72G	0.24
A20G A35U U54A G63U U78A	0.39
A20G A45C U69C	0.16
A20G A45G A77G	0.7
A20G A45G C50A U67C U72C A77G	0.5
A20G A45G G61U	0.38
A20G A45G G70C	0.15
A20G A45G U48C	0.23
A20G A45G U54C U60A A64U U69A	0.07
A20G A45G U58A U67C U72C	0.14
A20G A45G U74A	0.67
A20G A45G U76C	0.42
A20G A47G A57C U67C	0.27
A20G A47G A64U C68U	0.15
A20G A47G C62U	0.2
A20G A47G U51C U72A	0.34
A20G A47G U58A A65G	0.23

Variant	self-cleavage
A20G A47G U60C	0.19
A20G A47U A57G U58C A64G U78C	0.05
A20G A47U C68U U76C	0.13
A20G A47U U49A A57G	0.21
A20G A47U U58C	0.42
A20G A56G A64U U80C	0.27
A20G A56G A65C U72A	0.14
A20G A56G A65G	0.28
A20G A56G U60A U67C U78C	0.13
A20G A56G U72C U80C	0.6
A20G A56U G61A A75G U76A	0.11
A20G A56U U66C	0.42
A20G A56U U66C G73A A77G	0.28
A20G A57G A65G	0.11
A20G A57G A77G	0.8
A20G A57G U69C A77U	0.53
A20G A57G U76A	0.92
A20G A57U U80A	0.23
A20G A64G U66C U69C A75U U78A	0.09
A20G A64G U67C	0.73
A20G A64G U72C	0.59
A20G A64G U76C	0.32
A20G A64G U78A	0.88
A20G A64G U80A	0.44

Variant	self-cleavage
A20G A65G U66C	0.21
A20G A65G U69C	0.28
A20G A75G U76G	0.38
A20G C23U C37U	0.3
A20G C23U U31A U41A U80C	0.3
A20G C27A A56G C59U U60A	0.09
A20G C27A G33A U69C	0.14
A20G C27A U41C U43A U80C	0.2
A20G C27U A77U	0.28
A20G C27U U31C U51C	0.02
A20G C27U U43A A45G A64G	0.23
A20G C27U U51A C59U	0.06
A20G C27U U54A U60G U69C	0.19
A20G C29A A45G A57G	0.26
A20G C29A A47G G63A U72A	0.14
A20G C29U A35G U76A	1.16
A20G C29U A45G U72A A77G U78A	0.13
A20G C29U A47U G61A U74A A75G	0.1
A20G C29U A56G	0.46
A20G C29U C40U A64U U67C	0.11
A20G C29U G30U U51A U58A U69A U78C	0.06
A20G C29U G30U U51A U69A U78C	0.15
A20G C29U U41C	0.21
A20G C29U U43C U69C	0.08

Variant	self-cleavage
A20G C29U U54C A65G	0.26
A20G C32A A64G	0.26
A20G C32A A77G U80A	0.08
A20G C32A U58A A77G C79A	0.05
A20G C32U A75G	0.1
A20G C32U C39G U51A	0.15
A20G C32U U67C U78C	0.26
A20G C34G A45U	0.17
A20G C34G U51A U58A U66C C68U	0.09
A20G C34U G42U U48C	0.11
A20G C34U U41C A77G	0.09
A20G C34U U43C U58C	0.14
A20G C34U U43C U58C C81A	0.23
A20G C37A A56G C59U A65G U76A	0.03
A20G C37A A57G U58C	0.22
A20G C37A U49C G61U	0.16
A20G C37A U54C	0.09
A20G C37G A65G A77G	0.19
A20G C37U A47G U58C U69C U72C	0.09
A20G C38A A45G U78C	0.09
A20G C38G U72C	0.18
A20G C38U A45G U69C C81A	0.2
A20G C38U U41C A57C U58C U69A	0.07
